# Reference: article PMC9911399, “Two distinct binding modes provide the RNA-binding protein RbFox with extraordinary sequence specificity”
# Changes are numbered by the printed parent chain; changes in the protein carry UniProt numbers. This is one part of the list.
# T1: RBFOX1 RRM RbFoxmut (Fox-RRM*) (Homo sapiens, UniProt Q9NWB1 109-208, R118D;E147R;N151S;E152T)
# T1 sequence: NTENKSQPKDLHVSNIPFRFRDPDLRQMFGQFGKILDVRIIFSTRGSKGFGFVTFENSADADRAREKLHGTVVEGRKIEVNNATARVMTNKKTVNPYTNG
# B1: UCCCCGC (DNA:RNA)
# RNA: GGGAGACCGGAAUUCAGAUUGUCCUCCCCGCUUAAAUCCCGUCGUAGCCACCA
# DNA 1: CAATCTGAATTCCGGTCTCCC
# DNA 2: TGGTGGCTACGACGGGATT
# B2: GGAUCUG (DNA:RNA)
# RNA: B1 RNA with U25G, C26G, C27A, C28U, G30U, C31G
# DNA 1: CAATCTGAATTCCGGTCTCCC
# DNA 2: TGGTGGCTACGACGGGATT
# B3: UUUGGUA (DNA:RNA)
# RNA: B1 RNA with C26U, C27U, C28G, C29G, G30U, C31A
# DNA 1: CAATCTGAATTCCGGTCTCCC
# DNA 2: TGGTGGCTACGACGGGATT
# B4: UACUUGA (DNA:RNA)
# RNA: B1 RNA with C26A, C28U, C29U, C31A
# DNA 1: CAATCTGAATTCCGGTCTCCC
# DNA 2: TGGTGGCTACGACGGGATT
# B5: CCAGCUG (DNA:RNA)
# RNA: B1 RNA with U25C, C27A, C28G, G30U, C31G
# DNA 1: CAATCTGAATTCCGGTCTCCC
# DNA 2: TGGTGGCTACGACGGGATT
# B6: GAAAAAC (DNA:RNA)
# RNA: B1 RNA with U25G, C26A, C27A, C28A, C29A, G30A
# DNA 1: CAATCTGAATTCCGGTCTCCC
# DNA 2: TGGTGGCTACGACGGGATT
# B7: GAGUGAA (DNA:RNA)
# RNA: GGGAGACCGGAAUUCAGAUUGUCCGAGUGAAUUAAAUCCCGUCGUAGCCACCA
# DNA 1: CAATCTGAATTCCGGTCTCCC
# DNA 2: TGGTGGCTACGACGGGATT
# B8: UGGGCUC (DNA:RNA)
# RNA: B1 RNA with C26G, C27G, C28G, G30U
# DNA 1: CAATCTGAATTCCGGTCTCCC
# DNA 2: TGGTGGCTACGACGGGATT
# B9: GAUGGAA (DNA:RNA)
# RNA: B7 RNA with G27U, U28G
# DNA 1: CAATCTGAATTCCGGTCTCCC
# DNA 2: TGGTGGCTACGACGGGATT
# B10: UGGUGUC (DNA:RNA)
# RNA: B7 RNA with G25U, A26G, A30U, A31C
# DNA 1: CAATCTGAATTCCGGTCTCCC
# DNA 2: TGGTGGCTACGACGGGATT
# B11: ACACUGU (DNA:RNA)
# RNA: B1 RNA with U25A, C27A, C29U, C31U
# DNA 1: CAATCTGAATTCCGGTCTCCC
# DNA 2: TGGTGGCTACGACGGGATT
# B12: UGUGUGU (DNA:RNA)
# RNA: B1 RNA with C26G, C27U, C28G, C29U, C31U
# DNA 1: CAATCTGAATTCCGGTCTCCC
# DNA 2: TGGTGGCTACGACGGGATT
# B13: UCCGUCA (DNA:RNA)
# RNA: B1 RNA with C28G, C29U, G30C, C31A
# DNA 1: CAATCTGAATTCCGGTCTCCC
# DNA 2: TGGTGGCTACGACGGGATT
# B14: GCGCUGU (DNA:RNA)
# RNA: B1 RNA with U25G, C27G, C29U, C31U
# DNA 1: CAATCTGAATTCCGGTCTCCC
# DNA 2: TGGTGGCTACGACGGGATT
# B15: CUGGGCU (DNA:RNA)
# RNA: B7 RNA with G25C, A26U, U28G, A30C, A31U
# DNA 1: CAATCTGAATTCCGGTCTCCC
# DNA 2: TGGTGGCTACGACGGGATT
# B16: GAACAGG (DNA:RNA)
# RNA: B7 RNA with G27A, U28C, G29A, A30G, A31G
# DNA 1: CAATCTGAATTCCGGTCTCCC
# DNA 2: TGGTGGCTACGACGGGATT
# B17: UAGCUCG (DNA:RNA)
# RNA: B7 RNA with G25U, U28C, G29U, A30C, A31G
# DNA 1: CAATCTGAATTCCGGTCTCCC
# DNA 2: TGGTGGCTACGACGGGATT
# B18: CCAUGUG (DNA:RNA)
# RNA: B7 RNA with G25C, A26C, G27A, A30U, A31G
# DNA 1: CAATCTGAATTCCGGTCTCCC
# DNA 2: TGGTGGCTACGACGGGATT
# B19: CCAUAGA (DNA:RNA)
# RNA: B7 RNA with G25C, A26C, G27A, G29A, A30G
# DNA 1: CAATCTGAATTCCGGTCTCCC
# DNA 2: TGGTGGCTACGACGGGATT
# B20: ACGCGCC (DNA:RNA)
# RNA: B1 RNA with U25A, C27G, C29G, G30C
# DNA 1: CAATCTGAATTCCGGTCTCCC
# DNA 2: TGGTGGCTACGACGGGATT
# B21: UUUUCGA (DNA:RNA)
# RNA: B1 RNA with C26U, C27U, C28U, C31A
# DNA 1: CAATCTGAATTCCGGTCTCCC
# DNA 2: TGGTGGCTACGACGGGATT
# B22: GCCGUGG (DNA:RNA)
# RNA: B1 RNA with U25G, C28G, C29U, C31G
# DNA 1: CAATCTGAATTCCGGTCTCCC
# DNA 2: TGGTGGCTACGACGGGATT
# B23: CCCGCGU (DNA:RNA)
# RNA: B1 RNA with U25C, C28G, C31U
# DNA 1: CAATCTGAATTCCGGTCTCCC
# DNA 2: TGGTGGCTACGACGGGATT
# B24: UACCUGC (DNA:RNA)
# RNA: B1 RNA with C26A, C29U
# DNA 1: CAATCTGAATTCCGGTCTCCC
# DNA 2: TGGTGGCTACGACGGGATT
# B25: GGUCCAG (DNA:RNA)
# RNA: B7 RNA with A26G, G27U, U28C, G29C, A31G
# DNA 1: CAATCTGAATTCCGGTCTCCC
# DNA 2: TGGTGGCTACGACGGGATT
# B26: GACACGA (DNA:RNA)
# RNA: B7 RNA with G27C, U28A, G29C, A30G
# DNA 1: CAATCTGAATTCCGGTCTCCC
# DNA 2: TGGTGGCTACGACGGGATT
# B27: AGACUGG (DNA:RNA)
# RNA: B1 RNA with U25A, C26G, C27A, C29U, C31G
# DNA 1: CAATCTGAATTCCGGTCTCCC
# DNA 2: TGGTGGCTACGACGGGATT
# B28: UGUUAAG (DNA:RNA)
# RNA: B7 RNA with G25U, A26G, G27U, G29A, A31G
# DNA 1: CAATCTGAATTCCGGTCTCCC
# DNA 2: TGGTGGCTACGACGGGATT
# B29: CCCUAUU (DNA:RNA)
# RNA: B1 RNA with U25C, C28U, C29A, G30U, C31U
# DNA 1: CAATCTGAATTCCGGTCTCCC
# DNA 2: TGGTGGCTACGACGGGATT
# B30: AACGGGG (DNA:RNA)
# RNA: B7 RNA with G25A, G27C, U28G, A30G, A31G
# DNA 1: CAATCTGAATTCCGGTCTCCC
# DNA 2: TGGTGGCTACGACGGGATT
# B31: CGAAUUU (DNA:RNA)
# RNA: GGGAGACCGGAAUUCAGAUUGUCCCGAAUUUUUAAAUCCCGUCGUAGCCACCA
# DNA 1: CAATCTGAATTCCGGTCTCCC
# DNA 2: TGGTGGCTACGACGGGATT
# Target: T1, RBFOX1 RRM RbFoxmut (Fox-RRM*)
# Experiment: EMSA; HiTS-Eq, 1 nM pool, 10 min; buffer printed only for the single-RNA assays: 10 mM Tris pH 7.5, 150 mM NaCl, 3.4 mM EDTA, 0.001% NP-40, 30 C
# Conditions: tags: His6 N-terminal (pET28a); label: 5' 32P
# Method in brief: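 Relative association constants, normalised to the cognate motif, were derived by comparing read counts of each RNA species with those of the control reaction. The RNA sequenced was the free fraction, separated by 8% native PAGE after a 10 min equilibration in 50 µL of 1 nM 5′-radiolabelled RNA (7 randomized nucleotides) with increasing concentrations of purified wild-type or mutant RbFox RRM.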
row,Binder,binding signal
1,B1,0.0928 KA relative to UGCAUGU
2,B2,0.14 KA relative to UGCAUGU
3,B3,0.165 KA relative to UGCAUGU
4,B4,0.112 KA relative to UGCAUGU
5,B5,0.118 KA relative to UGCAUGU
6,B6,0.0554 KA relative to UGCAUGU
7,B7,0.103 KA relative to UGCAUGU
8,B8,0.115 KA relative to UGCAUGU
9,B9,0.0962 KA relative to UGCAUGU
10,B10,0.281 KA relative to UGCAUGU
11,B11,0.103 KA relative to UGCAUGU
12,B12,0.366 KA relative to UGCAUGU
13,B13,0.111 KA relative to UGCAUGU
14,B14,0.109 KA relative to UGCAUGU
15,B15,0.0959 KA relative to UGCAUGU
16,B16,0.0612 KA relative to UGCAUGU

row,Binder,binding signal
1,B17,0.166 KA relative to UGCAUGU
2,B18,0.128 KA relative to UGCAUGU
3,B19,0.122 KA relative to UGCAUGU
4,B20,0.147 KA relative to UGCAUGU
5,B21,0.0466 KA relative to UGCAUGU
6,B22,0.094 KA relative to UGCAUGU
7,B23,0.106 KA relative to UGCAUGU
8,B24,0.0726 KA relative to UGCAUGU
9,B25,0.0861 KA relative to UGCAUGU
10,B26,0.0798 KA relative to UGCAUGU
11,B27,0.137 KA relative to UGCAUGU
12,B28,0.113 KA relative to UGCAUGU
13,B29,0.0705 KA relative to UGCAUGU
14,B30,0.0892 KA relative to UGCAUGU
15,B31,0.0708 KA relative to UGCAUGU
